# Assay results reported in PubChem BioAssay AID624418 (National Center for Advancing Translational Sciences (NCATS), 2012).
# The whole screen tested about 410,000 compounds, of which about 530 (0.13%) were called active. Inconclusive means that the source gave no clear call. Such entries were picked first, then a sample of the others. Calls come from the whole dose curve; as a rule, active = well fitted inhibition curve with a large enough effect; inconclusive = small, poorly fitted or top-dose-only effect, or another doubt; inactive = no such curve, though single readings can be large or run the other way. Potencies beside an inconclusive call are fits to weak or partial responses and may not hold up.
# Test: qHTS of GLP-1 Receptor Inverse Agonists: Cytotox Screen
# Conditions: HEK293 cAMP-luciferase reporter cells, luminescence, 24 h; activity change, negative = inhibition: at 38.3 µM (top of the series) unless noted
# How it was run: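 1536-well qHTS counterscreen of the MLSMR; 200 cells/uL, 12 h pre-incubation, 23 nL cpd, 24 h at 37 deg C 5% CO2, luciferase detection reagent, 12 min RT, luminescence. Inhibition = undesired.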
# % is set by controls: 0 for no effect and ±100 for the full control effect; potency is the fitted concentration of half-maximal effect.
Compound,Potency,"activity change, negative = inhibition"
CC(C)c1ccc(CNc2nc(NCC3CC3)nc3ccsc23)cc1,"inconclusive: 10 µM [inhibitor, partial curve, poor fit]",–
COc1ccccc1NS(=O)(=O)c1cc([N+](=O)[O-])ccc1N/N=C/c1sc(N2CCOCC2)nc1-c1ccccc1,–,inactive: -2.82%
CCOc1cccc(C(=O)NC(=S)Nc2ccccc2)c1,"inconclusive: 28.2 µM [inhibitor, single point]",–
CCOC(=O)C1=C(C)N=C2c3ccccc3C(=O)C2C1c1ccccc1 (stereo unspecified),"inconclusive: 31.6 µM [inhibitor, single point]",–
Cc1c(NC(=S)N/N=C/C=C/c2ccc([N+](=O)[O-])cc2)c(=O)n(-c2ccccc2)n1C,"inconclusive: 5.62 µM [inhibitor, partial curve, poor fit]",–
O=C(CCS(=O)(=O)c1ccc(Br)cc1)Nc1ccccn1,–,inactive: 12.6%
O=C(NC(=S)N1CCCCC1)c1cccs1,"inconclusive: 28.2 µM [inhibitor, single point]",–
S=c1[nH]nc(-c2cccnc2)n1/N=C/c1ccco1,–,inactive: 14.2%
CS(=O)(=O)c1ccc2nc(NC(=O)c3cccc(NS(=O)(=O)c4ccc(F)c(F)c4)c3)sc2c1,"inconclusive: 28.2 µM [inhibitor, single point]",–
CCc1ccc(N(C(=O)c2snc(C(N)=O)c2N)C(C(=O)NC2CCCC2)c2ccco2)cc1 (stereo unspecified),–,inactive: -2.65%
CCN(Cc1ccccc1)C(=S)NC(=O)c1ccccc1Br,"inconclusive: 1 µM [inhibitor, full curve]",–
c1cncc(CSc2ccc(-c3cccs3)nn2)c1,–,inactive: 14.2%
Cc1ccc(C(=O)NCc2ccccc2CN2CCCC2)cc1S(=O)(=O)N1CCOCC1,"inconclusive: 31.6 µM [inhibitor, single point]",–
COc1ccc(-n2nnnc2SCC(=O)Nc2cccc(C)n2)cc1OC,"inconclusive: 6.31 µM [inhibitor, partial curve, poor fit]",–
CCNC(=S)NNC(=O)c1csc2c1CCC(C)C2 (stereo unspecified),"inconclusive: 11.2 µM [inhibitor, single point]",–
CC(C)c1ccc(NC(=O)Nc2nc(C(N)c3ccccc3Cl)cs2)cc1 (stereo unspecified),"inconclusive: 10 µM [inhibitor, single point]",–
CCc1cccc(CC)c1NC(=O)/C(C#N)=C/c1ccccc1C(F)(F)F,"inconclusive: 12.6 µM [inhibitor, single point]",–
COC(=O)C(=N/Nc1ccccc1C(=O)OC)/C(C)=N/O,"inconclusive: 10 µM [inhibitor, single point]",–
CCCC(=O)N1CCN(c2ccc(NC(=O)c3ccc([N+](=O)[O-])o3)cc2Cl)CC1,"inconclusive: 14.1 µM [inhibitor, single point]",–
COc1ccc(-c2cc(C(F)(F)F)nc(N3CCCCCC3)n2)cc1,–,inactive: 11.2%
O=C(Cc1cccc2ccccc12)NNC(=O)Nc1cccc(Cl)c1,–,inactive: -15.1%
COc1ccc(CC(=O)NNS(=O)(=O)c2ccc3ccccc3c2)cc1OC,"inconclusive: 31.6 µM [inhibitor, single point]",–

Compound,Potency,"activity change, negative = inhibition"
Cc1ccc2cc(CN(CC3CCCO3)C(=O)NC3CCCCC3)c(=O)[nH]c2c1C (stereo unspecified),"inconclusive: 6.31 µM [inhibitor, partial curve, poor fit]",–
Cc1ccc(-c2noc(N=O)c2NO)cc1,"inconclusive: 3.16 µM [inhibitor, partial curve, poor fit]",–
Cc1cc(C)c(NC(=S)N(CCN2CCCCC2)Cc2ccco2)c(C)c1,"inconclusive: 20 µM [inhibitor, single point]",–
COC(=O)c1sccc1NC(=S)Nc1cc(C)cc(C)c1,"inconclusive: 28.2 µM [inhibitor, single point]",–
CC1(C(=O)N(Cc2ccccc2)Cc2ccccc2)CC1(Br)Br (stereo unspecified),–,inactive: 5.14%
Cc1ccc(-n2nc(C)c(=O)c(-c3ccccc3)c2NC(=O)C(C)C)cc1,"inconclusive: 28.2 µM [inhibitor, single point]",–
CCn1nc(C)cc1C(=O)NC1CCCc2c1cnn2-c1cc(F)cc(F)c1 (stereo unspecified),"inconclusive: 20 µM [inhibitor, single point]",–
CC(=O)Nc1ccc(NC(=O)C23CC4CC(C2)CC(n2cnc(Br)n2)(C4)C3)cc1,"inconclusive: 10 µM [inhibitor, single point]",–
Cc1ccc(NC2CCCN(C(=O)CN3C(=O)c4ccccc4C3=O)C2)cc1C (stereo unspecified),–,inactive: -4.13%
COc1ccc2[nH]c(=O)c(CN(Cc3nnnn3Cc3ccccc3)CC3CCCO3)cc2c1 (stereo unspecified),–,inactive: -14.8%
Cc1cc(NC(=O)CSc2nnnn2-c2ccccc2C)no1,"inconclusive: 2.51 µM [inhibitor, partial curve, poor fit]",–
COC(=O)Cc1ccc(NC(=S)Nc2cccc(C)n2)cc1,"inconclusive: 28.2 µM [inhibitor, single point]",–
CCOC(=O)c1ccc(NC(=S)N(CCCN2CCCC(C)C2)Cc2cccs2)cc1 (stereo unspecified),"inconclusive: 28.2 µM [inhibitor, single point]",–
Cc1cc(=O)oc2cc(OCC3CC(c4ccc(Cl)cc4)=NO3)ccc12 (stereo unspecified),–,inactive: -13.7%
Cc1ccc(Oc2ncc(CN3CC(C)OC(C)C3)s2)cc1 (stereo unspecified),"inconclusive: 5.01 µM [inhibitor, partial curve]",–
CC(=O)OC1CC2(C)C(CCC2(O)C(C)=O)C2CCC3C(Cl)C(=O)CCC3(C)C12 (stereo unspecified),"inconclusive: 11.2 µM [inhibitor, partial curve, poor fit]",–
C/C(=N/Nc1nc(C)cc(C)n1)c1ccc(Br)cc1,"inconclusive: 22.4 µM [inhibitor, single point]",–
Cc1cccc(NC(=O)NNC(=O)c2cc(-c3ccccc3Cl)nc3ccccc23)c1,"inconclusive: 17.8 µM [inhibitor, partial curve, poor fit]",–
O=[N+]([O-])c1ccccc1C1Nc2cccc3cccc(c23)N1,"inconclusive: 3.16 µM [inhibitor, partial curve, poor fit]",–
Cn1c(=O)c(Nc2ccc(O)cc2)c2c3c(cccc31)C(=O)c1ccccc1-2,"inconclusive: 28.2 µM [inhibitor, single point]",–
COCCNC(=S)N/N=C/c1ccc(N2CCOCC2)cc1,"inconclusive: 22.4 µM [inhibitor, single point]",–
CC1(C)CC(=O)c2sc(NC(=O)CCS(=O)(=O)c3ccccc3)nc2C1,–,inactive: 13.1%

Compound,Potency,"activity change, negative = inhibition"
CC(C)NS(=O)(=O)c1ccc(Oc2ncc(C(F)(F)F)cc2Cl)cc1,–,inactive: -10.5%
CCOC(=O)N1CCc2cc(OC)c(OC)c3c2c1cc1cc(OC)c(OC)cc13,"inconclusive: 1.58 µM [inhibitor, full curve, poor fit]",–
Cc1ccc(C(C)C)c(OCc2nn(CC(=O)c3ccc(Cl)cc3)c3[n+]2CCCCC3)c1,"inconclusive: 22.4 µM [inhibitor, single point]",–
CC(=O)Nc1ccc(S(=O)(=O)N[C@@H](C)C(=O)N2CCN(c3ccccn3)CC2)cc1,"inconclusive: 28.2 µM [inhibitor, single point]",–
COc1cc(NC(=O)COc2ccccc2[N+](=O)[O-])ccc1NC(=O)c1cccs1,"inconclusive: 22.4 µM [inhibitor, partial curve, poor fit]",–
CCC1CCCCN1C(=O)COc1ccc(N(C)S(=O)(=O)c2ccc(C)cc2)cc1 (stereo unspecified),–,inactive: 3.08%
Cc1ccc2nc3c(c(Nc4ccc(C)c(C)c4)c2c1)CCC3,"inconclusive: 12.6 µM [inhibitor, partial curve, poor fit]",–
CCCN1CCC(=NNc2ccc(S(=O)(=O)N3CCOCC3)cc2[N+](=O)[O-])CC1,"inconclusive: 3.98 µM [inhibitor, full curve]",–
O=C(Nc1cccc(-c2cccc(Cl)c2)c1)C1CCN(C2CCC2)CC1,"inconclusive: 28.2 µM [inhibitor, single point]",–
N=c1c2c(-c3ccccc3)c(-c3ccccc3)n(Cc3ccccc3)c2ncn1CCO,"inconclusive: 12.6 µM [inhibitor, partial curve, poor fit]",–
CCc1cccc2c(C(=O)COC(=O)c3ccccc3)c[nH]c12,"inconclusive: 20 µM [inhibitor, single point]",–
O=[N+]([O-])c1ccc(-[n+]2ccc3ccccc3c2)c([N+](=O)[O-])c1,active: 12.6 µM,–
O=C(/C=C/c1ccco1)NC(=S)Nc1ccc(Cl)cn1,"inconclusive: 28.2 µM [inhibitor, single point]",–
Cc1ccccc1Cn1c(C)c(CNCCCc2ccccc2)c(C(=O)O)c1C,–,inactive: 5.07%
CCN(CC)CC(O)COc1ccc2c(c1)c(C(C)=O)c(C)n2-c1ccccc1 (stereo unspecified),"inconclusive: 31.6 µM [inhibitor, single point]",–
O=c1c2sc3ccccc3c2n(Cc2ccc(Cl)cc2)c(=O)n1Cc1ccco1,–,inactive: -0.516%
Cc1ccc(CN2CCN(c3cccc4[nH]ccc34)CC2)cc1,–,inactive: -7.77%
COc1ccc(CCNC(=O)C(=O)NCC2CCCN2S(=O)(=O)c2ccc(OC)cc2)cc1 (stereo unspecified),"inconclusive: 11.2 µM [inhibitor, single point]",–
COc1cc2c(C(=O)N3CCN(c4cccc(Cl)c4)CC3)cn(CC(C)C)c(=O)c2cc1OC,"inconclusive: 12.6 µM [inhibitor, single point]",–
CCn1cc(CN2CCN(Cc3ccc(C)o3)C(CCO)C2)c2ccccc21 (stereo unspecified),–,inactive: -29.7%
COC(=O)[C@@]12C[C@@H](CC(=O)NCc3ccccc3)C(=O)N(Cc3cccc4ccccc34)C1=CCC(C)(C)C2,"inconclusive: 28.2 µM [inhibitor, single point]",–
O=C1C=C(NCc2ccccc2)c2ccccc2C1=O,"inconclusive: 22.4 µM [inhibitor, single point]",–
